Out of some 310,000 compounds screened, about 2,200 (0.71%) showed an effect of 50% or more. The effect is printed as a negative number. The list shows a part of the results.
Target: human ether-à-go-go-related gene (hERG) potassium channel (human, UniProt Q12809)
Assay: primary screen, population patch clamp on CHO cells stably expressing hERG

Sequence of human ether-à-go-go-related gene (hERG) potassium channel (Q12809 whole entry, looked up): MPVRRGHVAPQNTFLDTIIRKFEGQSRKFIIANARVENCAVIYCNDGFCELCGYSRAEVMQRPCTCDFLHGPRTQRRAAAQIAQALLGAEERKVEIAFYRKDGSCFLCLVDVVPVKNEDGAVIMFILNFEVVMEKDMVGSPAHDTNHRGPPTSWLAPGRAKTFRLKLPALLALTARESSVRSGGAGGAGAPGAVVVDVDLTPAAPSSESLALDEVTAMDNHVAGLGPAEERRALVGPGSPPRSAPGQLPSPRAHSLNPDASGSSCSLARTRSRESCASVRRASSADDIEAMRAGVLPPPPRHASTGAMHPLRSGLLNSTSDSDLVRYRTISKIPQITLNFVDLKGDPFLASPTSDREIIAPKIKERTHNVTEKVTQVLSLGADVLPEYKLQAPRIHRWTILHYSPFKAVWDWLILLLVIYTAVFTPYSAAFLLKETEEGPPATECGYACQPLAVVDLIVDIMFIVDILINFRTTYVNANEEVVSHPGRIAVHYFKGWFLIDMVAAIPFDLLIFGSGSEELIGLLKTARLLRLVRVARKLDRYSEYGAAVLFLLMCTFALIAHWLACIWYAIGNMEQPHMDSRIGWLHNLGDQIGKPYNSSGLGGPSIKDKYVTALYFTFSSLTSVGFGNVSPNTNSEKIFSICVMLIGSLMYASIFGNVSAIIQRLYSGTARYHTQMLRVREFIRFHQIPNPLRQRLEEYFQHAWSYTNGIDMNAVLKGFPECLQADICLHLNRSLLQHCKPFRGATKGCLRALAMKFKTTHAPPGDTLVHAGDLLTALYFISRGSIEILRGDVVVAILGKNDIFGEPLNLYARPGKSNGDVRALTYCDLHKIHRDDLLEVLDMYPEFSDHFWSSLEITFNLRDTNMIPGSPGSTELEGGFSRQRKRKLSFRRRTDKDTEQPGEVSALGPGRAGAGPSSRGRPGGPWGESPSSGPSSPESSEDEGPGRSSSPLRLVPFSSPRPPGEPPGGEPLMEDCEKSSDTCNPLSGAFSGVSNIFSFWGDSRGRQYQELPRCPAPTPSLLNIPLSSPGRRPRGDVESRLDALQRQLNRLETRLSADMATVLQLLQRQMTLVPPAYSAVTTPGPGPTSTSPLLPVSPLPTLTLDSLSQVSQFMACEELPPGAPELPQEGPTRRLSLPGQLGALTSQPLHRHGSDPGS

Compound | hERG current change (%, negative = inhibition) at 1uM [%]
O=C(CC1C(=O)NCCN1Cc1ccoc1)NCCc1ccc(Cl)cc1 (stereo not drawn) | -13.3
CSc1ccccc1NC(=O)C1CC(c2ccccc2Cl)=NO1 (stereo not drawn) | 14.2
CCc1ccc(NC(=O)CSc2ccc(-c3ccco3)nn2)cc1 | -6.56
Cc1cnc(C)c(N2CCC(C(=O)NCc3cccs3)CC2)n1 | 0.946
Cc1c[nH]c2ccccc12 | 13.8
Cc1ccc(NC(=O)Cn2sc3nc(C)cc(C)c3c2=O)c(Cl)c1 | 10.7
CC(C)(C)c1ccc(C(=O)CS(=O)(=O)c2ccccc2)cc1 | -7.9
CCOC(=O)c1cccc(N2C(N)=NC(N)=NC2(C)C)c1.Cl | 12.7
CC1=C(C(=O)Nc2ccccc2)C(c2ccncc2)C(C#N)=C(SCC(=O)NC2CC2)N1 (stereo not drawn) | 6.49
CCOCc1nnc(NC(=O)c2ccco2)s1 | -13.2
COc1ccc(CCNS(=O)(=O)c2cc3c4c(c2)CCN4C(=O)CC3)cc1 | -4.07
Cc1nn(C)cc1C(=O)Nc1ccccc1Br | 9.61
COC(=O)c1ccccc1Nc1cc(C)nc2nc(C)nn12 | -2.35
O=C(CSc1nnc(-c2cccs2)o1)N1CCc2ccccc21 | 12.7
O=C(Nc1ccccc1Br)C1CC(=O)N(c2ccc3c(c2)OCCO3)C1 (stereo not drawn) | 4.45
COc1ccc(CCNC(=O)c2ccccc2OCc2ccccc2)cc1 | 7.35
Cc1sc2nc(CN3CCCC3)nc(N3CCC(C(N)=O)CC3)c2c1C | 14.1
NS(=O)(=O)c1ccc(CNC(=O)c2cccc(Oc3ccccc3)c2)cc1 | 16.2
CCN(CC)CCC(c1ccc(OC)cc1)c1c(O)cc(OC)cc1OC (stereo not drawn) | -25.8
Cc1ccc(S(=O)(=O)NCC(c2cccnc2)N2CCc3ccccc32)cc1 (stereo not drawn) | 11.8
O=C(c1ccccc1)c1nn(-c2cccc(Cl)c2)ccc1=O | 8.94
CCOC(=O)c1cnc(SC)nc1Oc1cccc(NS(=O)(=O)c2ccc(Cl)cc2)c1 | -3.09

Compound | hERG current change (%, negative = inhibition) at 1uM [%]
CC(C)(C)c1ccc(C(=O)N/C(=C\c2cccs2)C(=O)N2CCOCC2)cc1 | 10.5
COc1cccc(C(=O)Nc2ccccc2C(=O)NCC2CCCO2)c1 (stereo not drawn) | 15
O=C(CCc1nnc2ccc(NCc3ccccc3)nn12)NC1CCCC1 | 6.21
COc1ccc(NC(=O)NNC(=O)COc2ccc([N+](=O)[O-])c(C)c2)cc1OC | 11.8
O=c1cc(CN2CCN(S(=O)(=O)/C=C/c3ccccc3)CC2)c2ccc(O)cc2o1 | -29.8
COc1cccc(NC(=O)CN(c2ccccc2OC)S(=O)(=O)c2cccs2)c1 | 5.21
COc1ccc(N)cc1NC(=O)CN1CCCC1 | 14
CCNC(=O)CCC(=O)Nc1cc(Cl)ccc1C | 24.2
CC(=O)c1c(N(C)C)ccnc1C(F)(F)F | 9.56
COc1ccccc1NC(=S)N(C(C)C)C(C)c1ccccn1 (stereo not drawn) | 5.36
O=C(Oc1ccc(-c2cnc3ccccc3n2)cc1)c1ccc(Br)o1 | 4.99
COc1cc(CN2CCN(C(=O)COc3ccccc3)CC2)cc(OC)c1OC | 41.4
CCN(CC)c1c(-c2ccccc2)c2cc(C)ccc2[nH]c1=O | 5.48
CCOC(=O)Cn1c2c(c(-c3ccccc3OC)cc1=O)CCCC2 | 8.29
COc1ccccc1-c1csc(NC(=O)c2cc(-c3cccs3)nc3ccccc23)n1 | 14
Cc1ccc(C(=O)N(CC(=O)NC2CCCC2)c2cccc(F)c2)s1 | 3.91
CC(C)[C@@H](CO)NC(=O)c1ccc2c3n(nc2c1)-c1ccccc1CO3 | 10.1
Cc1ccc(C(=O)c2cnc3cc4c(cc3c2S(=O)(=O)c2ccccc2)OCCO4)cc1 | 20.9
O=C(NCCCCc1ccccc1)C1CC(c2ccc([N+](=O)[O-])cc2)=NO1 (stereo not drawn) | -3.21
O=C1C2=C(c3ccccc31)[N+](=O)[C@@H]1CCCC[C@@H]1N2[O-] | 12.7
O=c1c2cnn(-c3ccccc3)c2ncn1Cc1ccccc1F | 20
Cc1ccc(S(=O)(=O)CCC(=O)Nc2ccccc2N2CCCC2)cc1 | 3.25

Compound | hERG current change (%, negative = inhibition) at 1uM [%]
COc1ccc(C(=O)CSc2nnc(-c3cc4ccccc4cc3O)n2Cc2ccco2)cc1 | -16.2
O=C(CCC1CCCCC1)NCCS(=O)(=O)N1CCN(c2ccc(F)cc2)CC1 | 10.6
COc1ccc(NC(=O)CN(C)C(=O)CSCc2c(C)noc2C)cc1 | -1.3
CCOC(=O)C1CCN(C(=O)CCc2nnc3ccc(NCc4ccco4)nn23)CC1 | 0.564
CN(C)S(=O)(=O)c1cc(NC(=O)CN2CCN(c3ccccc3O)CC2)ccc1Cl | 3.48
CCOC(=O)C1(CCOc2ccccc2)CCN(Cc2ccc(F)c(OC)c2)CC1 | 5.6
CCc1ccc2cccc3c2c1N=CN3C | 10.3
CC(=O)c1c(COC(=O)c2ccccc2)nc2ccccc2[n+]1[O-] | -6.24
O=C(NCCCN1CCOCC1)/C(=C/c1cccs1)NC(=O)c1ccccc1 | -0.682
CC1CN(C(=O)C(Sc2ccccc2)c2ccccc2)CC(C)O1 (stereo not drawn) | 5.46
CCOc1ccc(N2C(=O)CCC2=O)cc1 | 13.5
O=C(CSc1nnnn1-c1ccccc1)c1ccco1 | 1.23
CCOC(=O)N1CCC(NC(=O)CSCc2cnn(-c3ccccc3)c2-n2cccc2)CC1 | 1.72
CSc1ccc(CN2CCN(C(=O)CC(C)C)CC2)cc1 | 9.18
C=CCn1c(O)c(C(C)=NCCCN2CCOCC2)c(=O)[nH]c1=O | 10.4
COc1cc(C(c2sc3nc(C)nn3c2O)N2CC(C)OC(C)C2)cc(OC)c1OC (stereo not drawn) | 6.86
CCN(CC)C(=O)Cn1c(=O)n(Cc2ccc(F)cc2)c(=O)c2sccc21 | 12.3
CCn1ncc(Cl)c1C(=O)Nc1ccncc1 | -1.42
Cc1noc(C)c1COc1ccc(C(=O)OCC(=O)N2CC3(C)CC2CC(C)(C)C3)cc1 (stereo not drawn) | 9.98
NC(=O)COc1ccc(/C=N\NC(=O)c2ccc(-c3ccccc3)cc2)cc1 | 12.8
CSc1cccc(NC(=O)C2C3C=CC4(O3)C2C(=O)N(CCN2CCOCC2)C4C(=O)NC2CCCCC2)c1 (stereo not drawn) | 15.3
COc1ccc(-c2c(-c3cc(OC)cc(OC)c3)n(C)c3ccc(-c4ccc(SC)cc4)cc23)cc1 | 20.9

Compound | hERG current change (%, negative = inhibition) at 1uM [%]
COc1cccc(C2c3c(-c4cc(Cl)c(C)cc4O)n[nH]c3C(=O)N2Cc2cccnc2)c1 (stereo not drawn) | 9.69
COC(=O)c1cn(CC(=O)Nc2ccccc2C)c2ccccc12 | 17.2
COc1ccc(NS(=O)(=O)c2cc(NC(=O)c3cccs3)ccc2N2CCOCC2)cc1 | 0.541
Cc1nn(-c2cccc3cccnc23)c(=O)c2ccccc12 | 11.2
CN(CC(=O)Nc1ccc(Cl)c(C(F)(F)F)c1)C(=O)Cc1c[nH]c2ccccc12 | 12
COc1cccc(-n2nnc3c(=O)n(CC(=O)Nc4ccc(C)cc4)cnc32)c1 | 13
Cc1ccc(C(C(=O)NC(C)(C)C)N(Cc2ccc3c(c2)OCO3)C(=O)c2ccc(CN3CCOCC3)o2)o1 (stereo not drawn) | 7.96
Cc1cc(C)n2nc(C(=O)OC(C)C(=O)c3ccccc3)nc2n1 (stereo not drawn) | 17
CCCCc1cc(=O)oc2cc(C)cc(OCC(=O)N3C[C@H]4C[C@@H](C3)c3cccc(=O)n3C4)c12 | -8.03
COc1ccccc1C(=O)NNS(=O)(=O)c1ccc(F)cc1 | 15.4
CCn1c(SCC(=O)c2cc(C)n(CC3CCCO3)c2C)nc2ccccc21 (stereo not drawn) | 4.01
NC(=O)CC[C@H](NC(=O)c1ccc(F)cc1)C(=O)OCC(=O)NCc1ccc(F)cc1 | 19
CCC1CCCCN1CCCNC(=O)Cn1cnc2sc(C)c(S(=O)(=O)N3CC(C)CC(C)C3)c2c1=O (stereo not drawn) | 8.19
COc1cc(C(=O)Oc2ccccc2/C=N/NC(=O)c2ccc(C)cc2)cc(OC)c1OC | 13.4
COc1ccc(Cl)cc1Nc1nc(NCCO)nc(N2CCCCC2)n1 | 2.86
CC(C)Sc1nc2c(c(=O)n(C)c(=O)n2C)n1Cc1ccc(Cl)cc1 | 12.7
CC1=CC(C)(C)NC(=S)N1C(C)c1ccccc1 (stereo not drawn) | 16.3
COc1ccc2c(c1)C(SCC(=O)NCCc1ccc(Cl)cc1)CC(C)(C)O2 (stereo not drawn) | 9.04
CCOC(=O)Cc1csc(NS(=O)(=O)c2ccc(F)cc2)n1 | 14.2
Nc1nnc(-c2cccc([N+](=O)[O-])c2)s1 | 5.39
Cc1c(C=O)c2ccccc2n1CC(=O)NCc1ccccc1 | 20.1

Reference: publication PMC4336329 (PLoS ONE, 2015)
